Test results taken from the supplement of paper PMC8728848.
The list shows a part of the results.

Experiments:
Test in all cases: glycan array binding signal (z-score within array); higher = stronger binding
Settings in all cases: glycan notation: IUPAC condensed, linker removed
[1] = target: Neu5Ac(a2-3)Gal(b1-4)GlcNAc(b1-6)GalNAc
In short: (§1)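 The binding signal is a Z-score computed within each array. Data were drawn from 3228 arrays in the Consortium for Functional Glycomics database, restricted to those with a known protein sequence. Scores were averaged over arrays of the same protein sequence at different concentrations or buffers, and over linkers, and negative values can be taken as non-binding.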

[2] = target: Neu5Ac(a2-3)Gal(b1-4)GlcNAc(b1-6)[Gal(b1-3)]GalNAc
In short: as §1

[3] = target: Neu5Ac(a2-3)Gal(b1-4)GlcNAc(b1-6)[Neu5Ac(a2-3)Gal(b1-3)]GalNAc
In short: as §1

[4] = target: Neu5Ac(a2-3)Gal(b1-4)GlcNAc6S
In short: as §1

[5] = target: Neu5Ac(a2-3)Gal(b1-4)[Fuc(a1-3)]GlcNAc
In short: as §1

[6] = target: Neu5Ac(a2-3)Gal(b1-4)[Fuc(a1-3)]GlcNAc(b1-2)Man
In short: as §1

[7] = target: Neu5Ac(a2-3)Gal(b1-4)[Fuc(a1-3)]GlcNAc(b1-3)Gal
In short: as §1

[8] = target: Neu5Ac(a2-3)Gal(b1-4)[Fuc(a1-3)]GlcNAc(b1-3)Gal(b1-4)GlcNAc
In short: as §1

[9] = target: Neu5Ac(a2-3)Gal(b1-4)[Fuc(a1-3)]GlcNAc(b1-3)Gal(b1-4)[Fuc(a1-3)]GlcNAc(b1-3)Gal(b1-4)[Fuc(a1-3)]GlcNAc
In short: as §1

[10] = target: Neu5Ac(a2-3)Gal(b1-4)[Fuc(a1-3)]GlcNAc(b1-3)GalNAc
In short: as §1

[11] = target: Neu5Ac(a2-3)Gal(b1-4)[Fuc(a1-3)]GlcNAc(b1-6)[Gal(b1-3)]GalNAc
In short: as §1

[12] = target: Neu5Ac(a2-3)Gal(b1-4)[Fuc(a1-3)]GlcNAc(b1-6)[Neu5Ac(a2-3)Gal(b1-3)]GalNAc
In short: as §1

[13] = target: Neu5Ac(a2-3)Gal(b1-4)[Fuc(a1-3)]GlcNAc6S
In short: as §1

[14] = target: Neu5Ac(a2-3)Gal6S(b1-4)GlcNAc
In short: as §1

[15] = target: Neu5Ac(a2-3)Gal6S(b1-4)[Fuc(a1-3)]GlcNAc
In short: as §1

[16] = target: Neu5Ac(a2-3)GalNAc
In short: as §1

[17] = target: Neu5Ac(a2-3)GalNAc(b1-4)GlcNAc
In short: as §1

[18] = target: Neu5Ac(a2-3)[GalNAc(b1-4)]Gal(b1-4)Glc
In short: as §1

[19] = target: Neu5Ac(a2-3)[GalNAc(b1-4)]Gal(b1-4)GlcNAc
In short: as §1

[20] = target: Neu5Ac(a2-3)[GalNAc(b1-4)]Gal(b1-4)GlcNAc(b1-3)GalNAc
In short: as §1

[21] = target: Neu5Ac(a2-3)[Neu5Ac(a2-6)]GalNAc
In short: as §1

[22] = target: Neu5Ac(a2-6)Gal
In short: as §1

[23] = target: Neu5Ac(a2-6)Gal(b1-3)GlcNAc(b1-3)[Gal(b1-4)GlcNAc(b1-6)]Gal(b1-4)Glc
In short: as §1

[24] = target: Neu5Ac(a2-6)Gal(b1-4)Glc
In short: as §1

[25] = target: Neu5Ac(a2-6)Gal(b1-4)GlcNAc
In short: as §1

[26] = target: Neu5Ac(a2-6)Gal(b1-4)GlcNAc(b1-2)Man
In short: as §1

[27] = target: Neu5Ac(a2-6)Gal(b1-4)GlcNAc(b1-2)Man(a1-3)Man(b1-4)GlcNAc(b1-4)GlcNAc
In short: as §1

[28] = target: Neu5Ac(a2-6)Gal(b1-4)GlcNAc(b1-2)Man(a1-3)[Gal(b1-4)GlcNAc(b1-2)Man(a1-6)]Man(b1-4)GlcNAc(b1-4)GlcNAc
In short: as §1

[29] = target: Neu5Ac(a2-6)Gal(b1-4)GlcNAc(b1-2)Man(a1-3)[GlcNAc(b1-2)Man(a1-6)]Man(b1-4)GlcNAc(b1-4)GlcNAc
In short: as §1

[30] = target: Neu5Ac(a2-6)Gal(b1-4)GlcNAc(b1-2)Man(a1-3)[GlcNAc(b1-4)][Neu5Ac(a2-6)Gal(b1-4)GlcNAc(b1-2)Man(a1-6)]Man(b1-4)GlcNAc(b1-4)GlcNAc
In short: as §1

[31] = target: Neu5Ac(a2-6)Gal(b1-4)GlcNAc(b1-2)Man(a1-3)[Man(a1-6)]Man(b1-4)GlcNAc(b1-4)GlcNAc
In short: as §1

B1: SBD-G4S3-Fc (protein)
chain: MASIPSSASVQLDSYNYDGSTFSGKIYVKNIAYSKKVTVVYADGSDNWNNNGNIIAASFSGPISGSNYEYWTFSASVKGIKEFYIKYEVSGKTYYDNNNSANYQVSTGGGGSGGGGSGGGGSEFVPRDCGCKPCICTVPEVSSVFIFPPKPKDVLTITLTPKVTCVVVDISKDDPEVQFSWFVDDVEVHTAQTQPREEQFNSTFRSVSELPIMHQDWLNGKEFKCRVNSAAFPAPIEKTISKTKGRPKAPQVYTIPPPKEQMAKDKVSLTCMITDFFPEDITVEWQWNGQPAENYKNTQPIMDTDGSYFVYSKLNVQKSNWEAGNTFTCSVLHEGLHNHHTEKSLSHSPGAA
In the case of B1, the “glycan array binding signal (z-score)” value [1] is reported as -0.109, the “glycan array binding signal (z-score)” value [2] is reported as 0.077 and the “glycan array binding signal (z-score)” value [3] is reported as 0.04. For the same binder, the “glycan array binding signal (z-score)” value [4] was -0.066, the “glycan array binding signal (z-score)” value [5] was -0.343 and the “glycan array binding signal (z-score)” value [6] was -0.233. The “glycan array binding signal (z-score)” value [7] was -0.272, the “glycan array binding signal (z-score)” value [8] was 0.189 and the “glycan array binding signal (z-score)” value [9] was -0.379. For the same binder, the “glycan array binding signal (z-score)” value [10] was -0.076, the “glycan array binding signal (z-score)” value [11] was 0.362 and the “glycan array binding signal (z-score)” value [12] was -0.117. The “glycan array binding signal (z-score)” value [13] was -0.046, the “glycan array binding signal (z-score)” value [14] was -0.25 and the “glycan array binding signal (z-score)” value [15] was -0.454. For the same binder, the “glycan array binding signal (z-score)” value [16] was -0.467, the “glycan array binding signal (z-score)” value [17] was -0.239 and the “glycan array binding signal (z-score)” value [18] was -0.229. The “glycan array binding signal (z-score)” value [19] was -0.269, the “glycan array binding signal (z-score)” value [20] was 0.103 and the “glycan array binding signal (z-score)” value [21] was 0.066. For the same binder, the “glycan array binding signal (z-score)” value [22] was -0.041, the “glycan array binding signal (z-score)” value [23] was -0.05 and the “glycan array binding signal (z-score)” value [24] was -0.384. For the same binder, the “glycan array binding signal (z-score)” value [25] was -0.064, the “glycan array binding signal (z-score)” value [26] was -0.16 and the “glycan array binding signal (z-score)” value [27] was 0.613. The “glycan array binding signal (z-score)” value [28] was 0.029, the “glycan array binding signal (z-score)” value [29] was 0.057 and the “glycan array binding signal (z-score)” value [30] was -0.262. For the same binder, the “glycan array binding signal (z-score)” value [31] was -0.206.
